Measurements as given in article PMC4336329 (PLoS ONE, 2015).
Out of some 310,000 compounds screened, about 14,000 (4.5%) showed an effect of 50% or more. The effect is printed as a negative number. The list shows a part of the results.

Biological target: human ether-à-go-go-related gene (hERG) potassium channel (human, UniProt Q12809)
Experiment: primary screen, population patch clamp on CHO cells stably expressing hERG
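Note: peak tail current of the secondary pulse compared with the same well before compound.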

human ether-à-go-go-related gene (hERG) potassium channel, sequence (Q12809 whole entry, looked up): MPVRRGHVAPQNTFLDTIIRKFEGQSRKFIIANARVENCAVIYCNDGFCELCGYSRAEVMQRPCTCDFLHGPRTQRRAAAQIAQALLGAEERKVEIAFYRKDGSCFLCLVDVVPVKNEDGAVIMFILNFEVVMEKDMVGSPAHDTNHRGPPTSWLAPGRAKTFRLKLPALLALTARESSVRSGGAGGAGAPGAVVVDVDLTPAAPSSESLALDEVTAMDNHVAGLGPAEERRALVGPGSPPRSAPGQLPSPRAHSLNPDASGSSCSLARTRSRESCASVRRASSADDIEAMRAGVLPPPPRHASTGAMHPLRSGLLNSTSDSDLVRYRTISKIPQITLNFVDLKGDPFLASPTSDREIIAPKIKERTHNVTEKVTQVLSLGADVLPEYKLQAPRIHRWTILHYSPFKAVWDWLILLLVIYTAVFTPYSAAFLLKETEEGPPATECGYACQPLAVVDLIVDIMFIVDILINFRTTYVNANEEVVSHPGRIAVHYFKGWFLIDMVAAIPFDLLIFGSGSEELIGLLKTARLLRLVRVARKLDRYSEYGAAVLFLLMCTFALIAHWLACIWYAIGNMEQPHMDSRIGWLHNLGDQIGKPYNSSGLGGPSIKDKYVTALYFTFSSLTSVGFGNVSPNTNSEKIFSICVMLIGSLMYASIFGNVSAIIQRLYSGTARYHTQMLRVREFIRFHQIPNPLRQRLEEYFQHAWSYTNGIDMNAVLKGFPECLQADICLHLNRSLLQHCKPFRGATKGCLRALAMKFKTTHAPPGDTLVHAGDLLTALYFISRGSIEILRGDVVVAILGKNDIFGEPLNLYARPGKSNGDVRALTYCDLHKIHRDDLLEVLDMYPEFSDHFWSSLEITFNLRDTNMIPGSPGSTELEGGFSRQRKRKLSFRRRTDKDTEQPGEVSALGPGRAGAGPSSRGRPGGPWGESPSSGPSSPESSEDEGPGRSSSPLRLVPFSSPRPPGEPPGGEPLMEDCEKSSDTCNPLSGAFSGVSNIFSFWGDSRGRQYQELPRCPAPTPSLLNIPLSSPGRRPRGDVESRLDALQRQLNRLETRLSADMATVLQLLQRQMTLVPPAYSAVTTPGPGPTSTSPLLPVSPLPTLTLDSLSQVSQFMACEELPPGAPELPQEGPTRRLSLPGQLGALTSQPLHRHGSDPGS

| SMILES | hERG current change (%, negative = inhibition) at 10uM [%] |
| --- | --- |
| O=C(c1ccco1)N1CCCC(c2nc3c(nnn3Cc3ccc(Cl)cc3Cl)c(=O)[nH]2)C1 (stereo not shown) | -36.1 |
| COc1ccc(C2=NCCn3nc4cc(C(F)(F)F)ccc4c32)cc1 | -2.18 |
| COc1ccc(-n2c(-c3ccc(OC)c(OC)c3)n[nH]c2=S)cc1 | 7.04 |
| CC(C)N=c1scc(-c2ccco2)n1/N=C/c1ccc(O)c(O)c1 | -13.4 |
| O=C(CNC(=O)c1ccccc1F)c1ccccc1 | 14.5 |
| O=C(OCC(=O)N1CCCC1)c1ccc(S(=O)(=O)Nc2ccccc2)cc1 | 9.1 |
| O=C(CN(Cc1ccc(F)cc1)C(=O)Cn1nnc2ccccc21)NCC1CCCO1 (stereo not shown) | 0.991 |
| COc1cc(S(=O)(=O)N(Cc2ccccn2)Cc2ccccc2Cl)ccc1-n1cnnn1 | -3.64 |
| CC(=O)SCC(=O)N=c1sc2cc(F)ccc2n1C | -10.7 |
| Nc1nc(-c2ccc3c(c2)OCCO3)c(CC(=O)O)s1 | 18.4 |
| c1ccc(-c2cc3nccc(-c4ccccn4)n3n2)cc1 | -46.3 |
| COCCN1C(=O)C(=O)/C(=C(/O)c2ccc(S(=O)(=O)N3CCCCC3)cc2)C1c1ccc(OC)c(OC)c1 (stereo not shown) | 8.21 |
| COc1ccc2nc(NC(=O)Nc3ccccc3)sc2c1 | 0.904 |
| CN(C)c1ccc(C(=O)N2CCNC(=O)C2CC(=O)Nc2ccc(F)cc2)cc1 (stereo not shown) | 17.1 |
| NC(=S)Nc1ncc(C(F)(F)F)cc1Cl | 12.2 |
| CCOC(=O)Cn1cc(C#N)c2cccc(CC)c21 | 1.42 |
| CCN1CCN(c2nc(Nc3ccccc3F)nc(N)c2[N+](=O)[O-])CC1 | -56.6 |
| CCCN(CCC)CC(O)CN(c1cc([N+](=O)[O-])ccc1OC)S(=O)(=O)c1ccccc1.Cl (stereo not shown) | -60.4 |
| O=C(NC(=S)NCCCN1CCOCC1)c1ccc([N+](=O)[O-])cc1 | -33.4 |
| CCOC(=O)N1CCC(NC(=O)c2oc3c(c2C)-c2[nH]ncc2CC3)CC1 | 18.5 |
| CCOC(=O)c1ccc(NC(=S)N(CCCN2CCN(C)CC2)Cc2cccs2)cc1 | -65.4 |
| CC(NC(=O)[C@@H](NC(=O)[C@@H]1Cc2ccccc2CN1)C(C)C)c1ccccc1 (stereo partly shown) | -1.36 |
| O=C(NCc1cccc(Cl)c1)C1CCN(c2nnc(N3CCCC3=O)s2)CC1 | -10.7 |
| Cc1ccc(C(=O)NCCN2C3=NC[C@@H](Cc4ccccc4)N3C[C@H]2Cc2ccc(O)cc2)cc1Br | -71.1 |
| COc1ccc(C2SCC(=O)N2c2ccccc2)cc1 (stereo not shown) | 8.97 |
| Cc1cccc(NC(=O)CSc2ncnc3sc(C)c(C)c23)n1 | -3.86 |
| Cc1ccc(CNC(=O)CS(=O)Cc2nc(-c3ccccc3F)oc2C)cc1 (stereo not shown) | -12.7 |
| CCN1CCN(c2cc(C)c3cc(NC(=S)NCc4cccs4)ccc3n2)CC1 | -59.7 |

| SMILES | hERG current change (%, negative = inhibition) at 10uM [%] |
| --- | --- |
| O=C(CNCc1ccccc1Cl)Nc1ccc2c(c1)OCCO2.O=C(O)C(=O)O | -19.1 |
| Cc1cc(C)n(C(=O)/C=C/c2cccs2)n1 | 13.1 |
| Cc1ccc(S(=O)(=O)N2CCC(=O)N(C(COCc3cccc(C)c3)Cc3ccccc3)CC2)cc1 (stereo not shown) | -29.1 |
| CC(=O)Nc1ccc(CN2CCc3c([nH]c4ccccc34)C2C(C)(C)C)cc1 (stereo not shown) | 4.92 |
| CN(C)CCn1c(=S)[nH]c2ccc(Cl)cc2c1=O | -21.7 |
| COc1cccc(NC(=S)NN=C2CCC(C(C)(C)C)CC2)c1 (stereo not shown) | 13.7 |
| CC(C)(C)n1nnnc1C(c1cccs1)N1CCN(Cc2ccc3c(c2)OCO3)CC1 (stereo not shown) | -19.4 |
| Cc1c(C)n(Cc2ccccc2)c2ncnc(NN)c12 | -10.2 |
| CCOc1ccccc1NS(=O)(=O)c1cccs1 | -2.15 |
| Cc1nnc(SCCn2c(N3CCCC(C)C3)nc3c2c(=O)[nH]c(=O)n3C)s1 (stereo not shown) | 2.42 |
| FC(F)(F)c1nnc2ccc(Sc3ccccn3)nn12 | 17.1 |
| COc1ccc(NC(=O)CN(C)C(=O)c2cccc(S(=O)(=O)N3CCCc4ccccc43)c2)cc1 | -39.3 |
| CCn1c(=O)c2c(cnn2C)c2ccccc21 | 2.58 |
| COc1ccc(CN2C(=O)CCC2(C)C(=O)NCc2cccnc2)c(OC)c1 (stereo not shown) | -15.4 |
| O=S1(=O)CC(N2CCOCC2)c2ccccc21 (stereo not shown) | -3.12 |
| O=C(CCC(=O)Nc1ccccc1Cl)NNC(=S)Nc1ccccc1C(F)(F)F | 21.8 |
| COc1ccc(CCNC(=O)c2sc(=S)n(C)c2N)cc1 | 15.1 |
| COc1ccc(NC(=O)[C@H](Cc2c[nH]c3ccccc23)NC(=O)[C@@H]2Cc3ccccc3CN2)cc1 | -36.8 |
| COC(=O)Cc1c(C)nc2nc(-c3ccc(OC)cc3)[nH]n2c1=O | -8.18 |
| COC(=O)c1ccc2c(=O)n(CCCCCC(=O)NCc3ccccn3)c(=O)[nH]c2c1 | 2.27 |
| Cc1cc2nnc(SCC(=O)N3CCN(c4ccccc4)CC3)n2c(N)n1 | -11.5 |
| COC(=O)C1=C(c2ccc(S(C)(=O)=O)cc2)C[C@@H]2CC[C@H]1N2C(=O)N1CCCC1 | 2.35 |
| CNCCc1c[nH]c2ccc(O)cc12.O=C(O)C(=O)O | 17.7 |
| COC(=O)c1[nH]c2cccc(OC)c2c1NC(=O)CCN1CC(C)CC(C)C1 (stereo not shown) | -21.1 |
| OC(COc1ccc(Cl)cc1)CSc1ccccn1 (stereo not shown) | 9.61 |
| O=C(C1CCN(C2CCN(CC3CC=CCC3)CC2)CC1)N1CCOCC1 (stereo not shown) | -4.14 |
| Cc1ccccc1NS(=O)(=O)c1ccc(C(=O)N2CCC2)cc1 | 8.65 |
